Measured values reported in the RNAGym collection of RNA variant scans (doi:10.7554/elife.90254).
Read counts are not given, so values of variants with three or more changes are uncertain.

B1: OR4K15 (parent)
chain: GUUAACGGUCAUAGGCCAUGGAAACUAGGAGCACCAUUUCGCUGCCAGUGAAGAAAUGAACAAAGAAAAUCUGGGCCAGGCAGGCAUCAAAAGAAAUAGUCUUGCGCUCAACCAGAAAGUCUGUAAUCAUUUUAAGGGUA

Variants of: B1
Assay: self-cleavage, relative activity (ratio to wild type); higher = more cleavage; in vitro, sequencing; the parent is a self-cleaving ribozyme

Q: For GUUAACGGUCUUAGGCCAUGGAAACUAGGAGCUCCAUUUCGCUGCCAGUGAAGAAAUGAACAAAGAAAAACUGGGCCAGGCAGGCAUCAAAAGAAAUAGUCUUGCGCUCAACCAGAAAGUCUGUAAUCAUUUUAAGGGUA [A11U A33U U70A], which self-cleavage is on record?
A: 0.41

Q: With GUUAACGGUCUUAGGCCAUGGAAACUAGGAGCACCAUUUCGCUGCCAGUGAAGGAAUGAACAAAGAAAAUCUGGGCCAGGCAGGCAUCUAAAGAAAUAGUCUUGCGCUCAACCAGAAAGUCUGUAAUCAUUUUAAGGGUA [A11U A54G A89U] as the variant, how does the self-cleavage read?
A: 1.6

Q: Which self-cleavage does the source give for GUUAACGGUCUUAGGCCAUGGAAACUAGGAGCACCAUUUCGCUGCCAGUGAAGAAAUGGACAAAGAAAAUCUGGGCCAGGCAGGCAUCAGAAGAAAUAGUCUUGCGCUCAACCAGAAAGUCUGUAAUCAUUUUAAGGGUA [A11U A59G A90G] here?
A: 1.13

Q: Which self-cleavage does the source give for GUUAACGGUCUUAGGCCAUGGAAUCUAGGAGCACCAUUUCGCUGCCAGUGAAGAGAAGAACAAAGAAAAUCUGGGCCAGGCGGGCAUCAAAGGAGAUAGUCUUGCGCUCAACCAGAAAGUCUGUAAUCAUUUUAAGGGUA [A11U A24U A55G U57A A82G A92G A95G] here?
A: 0.47

Q: Which self-cleavage does the source give for GUUAACGGUCUUAGGCCAUGGAAACUAGGAGCACCAUUUCGCUGCCAGUGAAGGAAUGAACAAAGAAAAUCUGGGCCAGGCAGGCAUCAAAAGAAAUAGUCUUGCGCUCAACCAGAAAGUCUGUAUACAUUUUAAGGGUA [A11U A54G A126U U127A] here?
A: 0.74

Q: With GUUAACGGUCUUAGGCCAUGGAAACUAGGAGCACCAUUUCGCUGCCAGUGAAGAAAUGAACAAAGGAAAUCUGGGCCAGGCAGGCAUCAAAAGAAGUAGUCUUGCGCUCAACCAGAAAGUCUGUAAUCGUUUUAAGGGUA [A11U A66G A96G A129G] as the variant, how does the self-cleavage read?
A: 1.02

Q: With GUUAACGGUCUUAGGCCAUGGAAACUAGGAGCACCAUUUCGCUGCCAGUGUAGAAAUGAACAAAGAAAGUCUGGGCCAGGCAGGCAUCAAAAGAAAUAGUCUUGCGCUCAACCAGAAAGUCUGUAAUCAUUUUAAGGGUA [A11U A51U A69G] as the variant, how does the self-cleavage read?
A: 1.45

Q: With GUUAACGGUCUUAGGCCAUGGAAACUAGGAGCACCAUUUCGCUGCCAGUGAUGAAAUGAACAAAGAAAAUCUGGGCCAGGCAGGCAUCAAAAGAAAUAGUCUUGCGCUCAACCAGAAGGUCCGUAAUCAUUUUAAGGGUA [A11U A52U A118G U122C] as the variant, how does the self-cleavage read?
A: 0.36

Q: Which self-cleavage does the source give for GUUAACGGUCUUAGGCCAUGGAAACUAGGCGCACCAUUUCGCUGCCAGCGAAGAAAUGAACAAAGAAAAUCUGGGCCAGGCAGGCAUCAAAAGAAAUAGUCUUGCGCUCAACCAGAAAGUCUGUAAUCAUUUUAAGGGUA [A11U A30C U49C] here?
A: 0.99

Q: Which self-cleavage does the source give for GUUAACGGUCUUAGGCCAUGGAAACUAGGAGCACCAUUUCGCUGCCAGUGAAGGAAUGAACAAAGAAAAUCUGGGCCAGGCAGGCAUCAAAGGAAAUAGUCUUGCGCUCAACCAGAAAGUCUGUAAUCAUUUUAAGGGUA [A11U A54G A92G] here?
A: 0.84

Q: For GUUAACGGUCUUAGGCCAUGGAAACUAGGAGCACCAUUUCGCUGCCAGUGAAGGAAUGGACAAAGAGAAUCUGGGCCAGGCAGGCAUCAAAAGAAAUAGCCUUGCGCUCAACCAGAAAGUCUGUAAUCAUUUUAAGGGUA [A11U A54G A59G A67G U100C], which self-cleavage is on record?
A: 1.16

Q: For GUUAACGGUCUUAGGCCAUGGAAACUAGGAGCACCAUUUCGCUGCCAGUGAGGAAAUGAACAAAGAAAAUCUGGGCCAGGCAGGCAUCAAAUGAAAUAGUCUUGCGCUCAACCAGAAAGUCUGUAAUCAUUUUAAGGGUA [A11U A52G A92U], which self-cleavage is on record?
A: 0.95

Q: Which self-cleavage does the source give for GUUAACGGUCUUAGGCCAUGGAAACUGGGAGCACCAUUUCGCUGCCAGUGAAGAGAUGAACAAAGAAAAUCUGGGCCAGGCAGGCACCAGAUGAAAUAGUCUUGCGCUCAACCAGAAAGUCUGUAAUCAUUUUAAGGGUA [A11U A27G A55G U87C A90G A92U] here?
A: 0.18

Q: With GUUAACGGUCUUAGGCCAUGGAAACUAGGAGCACCAUUUCGCUGCCAGUGAGGAAAUGAACAAAGAAACUCUGGGCCAGGCAGGCAUCAAAAGAAAUAGUCUUGCGCUCAACCAGAAAGUCUGUAAUCAUUUUAAGGGUA [A11U A52G A69C] as the variant, how does the self-cleavage read?
A: 1.41

Q: With GUUAACGGUCUUAGGCCAUGGAAACUAGGAGCGCCAUUUCGCUGCCAGUGGAGAAAUGAACAAAGAAAAUCUGGGCCAGGCAGGCAUCAAAAGAAAUAGUCUUGCGCUCAACCAGAAAGUCUGUAAUCAUUUUAAGGGUA [A11U A33G A51G] as the variant, how does the self-cleavage read?
A: 0.19

Q: Which self-cleavage does the source give for GUUAACGGUCUUAGGCCAUGGAAACUAGGGGCACCAUUUCGCUGCCAGUGAAGAAAUGAACAAAGAAAAUCUGGGCCAGGCAGGCAUCAAAAGAAAUAGCCUUGCGCUCAACCAGAAAGUCUGUAAUCAUUUUAAGGGUA [A11U A30G U100C] here?
A: 1.1

Q: With GUUAACGGUCUUAGGCCAUGGAAACUAGGAGCACCAUUUCGCUGCCAGUGAAGAGAUGAACAAAGAAAAUCUGGGCCAGGCAGGCAUCAAAAGAAUUAGUCUUGCGCUCAACCAGAAAGUCUGUAAUCAUUUUAAGGGUA [A11U A55G A96U] as the variant, how does the self-cleavage read?
A: 2.15

Q: With GUUAACGGUCUUAGGCCAUGGAAACUAGGAGCACCAUUUCGCUGCCAGUGAAGAAAUGAACAGAGAAAAUCUGGGCCAGGCAGGCAUCAAAAGAAGUAGUCUUGCGCUCAACCAGAAAGUCUGUAAUCAUUUUAAGGGUA [A11U A63G A96G] as the variant, how does the self-cleavage read?
A: 1.59

Q: For GUUAACGGUCUUAGGCCAUGGAAACUAGGAGCACCAUUUCGCUGCCAGUGAAGAAAUGAACUAAGAAAAUCUGGGCCAGGCAGGCAUCAAAAGAAAUAGUCUUGCGCUCCACCAGAAAGUCUGUAAUCAUUUUAAGGGUA [A11U A62U A110C], which self-cleavage is on record?
A: 0.44

Q: For GUUAACGGUCUUAGGCCAUGGAAACUAGGAGCACCAUUUCGCUGCCUGUGAAGAAAUGAACAAAGAAAAUCUGGGCCAGGCAGGCAUCAAAAGAUAUAGUCUUGCGCUCAACCAGAAAGUCUGUAAUCAUUUUAAGGGUA [A11U A47U A95U], which self-cleavage is on record?
A: 0.43

Q: Which self-cleavage does the source give for GUUAACGGUCUUAGGCCAUGGAAACUAGGAGCACCAUUUCGCUGCCAGUGAAGAAAUGAACAAGGAAAAUCUGGGCCAGGCAGGCAUCAAGAGAAAUAGUCUUGCGCUCAACCGGAAAGUCUGUAAUCAUUUUAAGGGUA [A11U A64G A91G A114G] here?
A: 0.44
